Test results as given in the supplement of paper PMC3334620.
Whole data set: some 33,000 sequences, median “E-score (-0.5 to 0.5)” near -0.013, cut for the highest 2% near 0.3. The list shows a part of the results.

Target: T1, Msn1 (UniProt P22148)
T1 sequence: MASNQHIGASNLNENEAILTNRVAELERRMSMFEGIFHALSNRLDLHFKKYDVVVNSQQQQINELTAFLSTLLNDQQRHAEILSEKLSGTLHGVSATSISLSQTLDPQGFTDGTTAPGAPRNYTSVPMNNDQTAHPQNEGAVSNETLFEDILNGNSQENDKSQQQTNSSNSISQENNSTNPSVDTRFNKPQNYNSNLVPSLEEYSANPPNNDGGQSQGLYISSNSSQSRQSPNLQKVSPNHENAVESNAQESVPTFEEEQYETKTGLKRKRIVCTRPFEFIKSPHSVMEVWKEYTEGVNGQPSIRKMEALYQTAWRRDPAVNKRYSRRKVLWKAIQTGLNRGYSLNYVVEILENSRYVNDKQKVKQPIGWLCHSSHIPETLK
Test: PBM E-score (8-mer binding enrichment) (E-score (-0.5 to 0.5)); higher = stronger / more preferred TF binding; most listed sequences are background and not binding sites
Conditions: protein concentration: 200 nM; construct: GST-full length
In short: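 Universal all-10-mer Agilent arrays, double-stranded by primer extension on fresh or once-stripped slides, were probed with about 100-200 nM GST-tagged yeast transcription factors made by PURExpress. Fluorescent anti-GST detected bound protein, and masliner normalised the scans. E-scores from the Universal PBM Analysis Suite were given to each ungapped eight-base word pooled with its reverse complement.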

Sequence	PBM E-score
CACGTCTA	0.0316
GGTTATAC	-0.0112
ATATACCC	0.23
CGCGAGCG	-0.171
ATGAGAAT	0.0723
AAGACACT	0.163
AGGTCTGG	-0.221
CGCACGAG	-0.274
CTATACAG	-0.0109
AGTTCTTA	0.105
ACAGGTCG	-0.0517
AACCAACC	0.0193
ATAGTTAC	0.0597
AATTGTGG	0.134
CTGTAGGC	-0.107
TCTCATCA	0.118
ATTAATCG	0.134
GGCTCTGA	-0.0115
ATCACTTA	-0.0508
GTGGGGCA	-0.102
CTACACTA	-0.196
GGTGTAAA	-0.184
CTTACTTA	0.00884
CACGTTAC	-0.1
CTGTGTTA	0.127

Sequence	PBM E-score
GGTTTCTA	-0.0691
ATTATCCA	0.124
GTCGTTCA	-0.00823
GATTTAAC	0.156
CTACGGCA	0.0653
CCGGCCAA	-0.0313
AATGCCAG	-0.0323
CCTGCATC	-0.0199
ACGATACT	-0.0977
ATGCGTAG	-0.201
CGGCGAGA	0.05
ATGCCACC	-0.326
CTACATAC	0.0824
ATTATAGC	-0.0661
GCTGGCGA	-0.343
CAGTGGAC	0.0261
CGGAGCAG	-0.0649
ATGCCTCA	-0.0924
TAGTCGAA	0.124
AGTACGAA	0.206
CGCCAGCA	-0.196
TATATGCA	0.102
GTAGTAGA	-0.00365
CAACAACA	0.135
CCCAGCGG	-0.119

Sequence	PBM E-score
ATTGGGCC	-0.0889
CGGCATTA	0.203
GCATGGCC	-0.123
GCCTTCCC	-0.35
TCGTACGA	0.167
AACCACGG	-0.104
ATATAATC	0.182
CAATGGGG	-0.111
CTGGGGGA	-0.285
CGAACACC	-0.0131
CATAGTTC	-0.00808
AGGAGGAC	-0.0659
CCGCTCTA	0.0134
CAGGCTCC	-0.27
AACAAAAT	0.247
AATGAACG	0.0599
AATACGAG	0.0128
AACCATCC	-0.0425
AACCTACC	-0.195
CCCGGCCC	-0.299
TATAAAGA	0.174
ACTAAGTC	-0.0523
ACTATCGC	-1e-05
AAAGCTGT	0.0549
GCCAATAA	0.192

Sequence	PBM E-score
CTTCTTAC	-0.0174
AGCTAGGG	-0.163
ACTCTCGA	-0.0168
CAGCCCAC	-0.252
GCGGGGCC	-0.246
ACAGTCCG	0.0173
CGTATTAA	0.0418
ACCCTATG	-0.0968
ACTAGGCT	-0.0597
CACGCACC	-0.149
ACCAGTAC	0.0061
CTGTCTGC	-0.127
CCTTCTAG	-0.0887
AGGCTAGA	-0.196
CGACCCCA	-0.177
CTCAACCA	-0.104
ACGGTTGG	-0.236
CTCATCAA	0.138
ATGATCTA	0.076
CGATAGCA	-0.132
ATTCGCTA	-0.1
AATCATCC	-0.135
AAACCGTA	-0.0236
CATACGGC	-0.0218
GATATAGA	-0.0256

Sequence	PBM E-score
AGGGCGCC	-0.305
CAGGCTTA	-0.0138
TCCGTAGA	0.0628
TAAACCTA	0.0654
AGGTCACT	-0.107
ACGGTAGG	-0.167
AGCGAACC	-0.134
CTGGGTAC	-0.294
AGTGGAAC	0.00101
TTGAGCAA	-0.0524
GCAGAGAC	-0.107
GAGTACGC	-0.125
AAGCCCCG	-0.042
GACTCAGA	0.0175
AATTTGAC	0.194
CAGACCAC	-0.116
TACCGAGA	0.131
CCTAGCGA	-0.146
ATTATAAA	0.17
ACTGCATC	-0.206
CGGTTAAA	0.0871
GAGGTTGA	-0.0528
GACGGTGC	-0.164
AGCGTTGA	-0.12
GTGGCCAC	-0.0132

Sequence	PBM E-score
AAGACGAG	-0.174
ATGTCACG	0.31
CGATGATC	-0.0829
AGGGAGGC	-0.346
ACTCGCGG	-0.00017
GAGGCAAA	0.0578
ACGATAAC	0.0494
ACTACACT	-0.0242
ATCGCTCG	-0.0356
TTTATAAA	0.264
ACTGGAAC	-0.0157
AAGCCAGT	-0.224
AGTCGATG	-0.0525
TGGACACA	0.427
GCAGGGTA	-0.113
ATGAGGTG	-0.151
AATCCCTG	-0.0745
GCGGCGCC	0.0933
ATTGTTCG	0.259
GCACGCCA	-0.277
CAACCGAG	0.0584
GCTCGAAA	-0.00351
TCTCTAAA	-0.0112
CCCACCGC	-0.191
GACCTCAA	-0.0271

Sequence	PBM E-score
CAGCGAAG	-0.193
ATCTCCTG	-0.00465
GTATCGAA	0.122
CTTTTCGA	0.0793
TATTCGCA	-0.00765
CGAACAAA	0.2
ATTCAGGA	0.208
ATAGAGGC	-0.178
CCATATGA	0.0213
GCATGGTA	0.0994
AAAGAACT	-0.0159
CTTCACGA	-0.286
AGTATCGC	-0.0831
CCCTCACA	-0.0696
ACCATCTC	-0.0822
GGTTTTGA	0.0871
GGTTCAGA	-0.136
AGTGCGAT	-0.113
TCTGCCCA	0.0034
CCGATACC	-0.00251
TCCAGAGA	-0.172
TCAATAAA	0.103
CTTTTGGA	0.163
AGAGGACC	-0.208
CTGGACAA	0.43

Sequence	PBM E-score
CAACCCAG	-0.0391
ACCACCGA	0.00223
CGACAAAA	0.423
CGCATTAA	0.183
AACCTTGG	-0.192
CCTCCTGC	-0.159
CCGAACCA	-0.166
TCGGAGCA	0.232
AAATGCCG	0.0238
CCCTCTAC	-0.204
AATGATTC	0.177
AGCCCGCA	-0.146
ACCTGAGA	0.0537
ACCGCAGT	-0.0514
GAGCCCGA	-0.128
ACCGACCC	-0.107
AAAAGGAC	0.248
AACCACTG	0.0962
AGCGTAGC	-0.136
GAGATTGC	-0.0916
CTCCGCCC	-0.226
CCTTCGTC	0.108
GCAGAGTA	-0.0382
AATAGCGG	0.0486
GAGTATTA	0.00348

Sequence	PBM E-score
CAAACGGC	-0.141
AAGCTGAC	-0.00835
CCGGCATC	-0.0891
CCTGTGAC	-0.0638
ATTGAAGG	-0.113
CAACACCG	-0.12
CTATAGTC	-0.138
AAGAGTAA	0.0499
ACTTACAA	0.177
AACCGTAT	-0.139
ATTCCTCG	0.0159
ACTCCCCA	-0.0702
CGTAATCA	0.101
CCGCCCCA	-0.0542
AGTGTCTA	0.188
ATGGGTAA	0.0578
GTGGCAAC	0.0174
CTTACTCC	-0.0325
CCCTATGC	-0.199
ACTTCGGA	0.108
AGAAAGCG	-0.107
CCTAAGGA	-0.0865
AGGCGACT	-0.0861
GAGACTAA	0.131
GCGGGTCA	-0.0271

Sequence	PBM E-score
AGCCGTTA	0.0281
CGGGCAGC	-0.122
CACCCGCG	0.0812
CTAGTCAG	-0.133
GCCGCGGA	-0.0181
CGGATCCG	0.0823
GGCCCTAA	-0.0622
TATAGGGA	-0.0109
AGATGGTC	-0.158
CAGAGTCA	-0.127
TATTCCCA	0.0539
AACTACGG	-0.062
CGATCTTC	-0.0892
CCCCGTTA	-0.175
CAGCCCAG	-0.141
AGGAGGTC	-0.244
AACGCTCT	-0.156
CTTACAAG	0.043
AAATTTGA	0.19
GTACTGAC	-0.0285
GCGATTCC	-0.175
ACATACCT	0.121
CTGATACC	0.0072
CGGCGCTC	-0.0454
TCGCGTAA	0.0414

Sequence	PBM E-score
AGAAATCG	0.0314
GACTCATA	-0.0448
AGTCTCGA	0.0272
CTTCTCCC	-0.335
GTCCAGCA	0.162
CGGTGCTC	-0.124
ATAATACG	0.171
ACATACTG	0.0194
CACTCACG	-0.115
CAGGCCCG	-0.157
AACGGAAA	0.234
CCTAATCG	0.135
CTTTTGAA	0.0301
CTTGGAGA	-0.00816
CGCGAAAA	0.191
AGTTAAGC	-0.0654
ACTAACAC	0.0501
AAGTCTCA	0.13
AACGCATC	-0.105
CTAATGAA	0.107
AAAGATAG	-0.095
CTGGTCAA	-0.0575
CTAGACCA	-0.0818
AAGCGGCC	-0.123
CGGCCTGA	-0.216

Sequence	PBM E-score
CCGTACCG	-0.217
ATTTAGAA	0.208
ATATTATA	0.0943
ATACACCG	0.0396
ACGGAAGA	0.0866
CCGGTCTA	-0.229
AACCATTA	0.026
AGGAGCTC	-0.149
AGACCATC	-0.216
GAGGATGA	-0.243
CAGGTCTA	0.103
CACTCCTC	-0.234
AGCTCCGG	-0.0221
CTACGACC	-0.119
GACAAAGA	0.404
GGCACAAA	-0.113
CAGTGTAA	0.118
GGACCCAC	-0.0704
CACGAGCG	-0.228
TAAGACCA	-0.13
GGTCTAAA	-0.0883
CTCCACCA	-0.256
ACATACGG	0.182
ACTTTCTA	0.0612
GAAACAAC	-0.0343

Sequence	PBM E-score
CGAGCTGC	-0.135
GGACCAGA	-0.0855
GGGGGCTA	-0.406
AGAACTGG	-0.123
AACGACCA	0.0221
AATACTGA	-0.0611
AATGGCAT	0.171
GGAGGACA	0.4
ATGCTTCA	-0.133
TACAGGGA	-0.145
AAGCGACC	0.0492
CGTCGGAC	0.141
CAGCTTAC	0.0355
AAGTCCAA	0.275
ATCGTACC	-0.189
GGTAGGCA	-0.105
AATTTCCA	0.188
CACGCAAA	-0.119
GGGACTAA	0.196
AAAGGTGC	-0.0567
AGCTGCTC	-0.142
CGAGTTGA	0.0114
GCACGGAA	0.0357
GCGCATCA	-0.0995
AGGTAGAA	0.0304

Sequence	PBM E-score
AAAAGGGC	-0.0761
CGTGCTGC	-0.144
AATAGATG	0.0765
GTTAGTTA	0.201
GCCGAGCC	-0.0652
ACACTCGA	0.0471
CACTGTCC	0.144
GTACTTTA	0.099
CCCAGCCG	-0.258
AACTGATA	0.121
CTGCAACC	-0.16
CTCTCCGC	-0.0603
CATTTGAA	0.0686
GGACCTTA	-0.0966
CGTACTAG	0.151
CCCTAGGC	-0.139
TAGTGAAA	-0.0432
AGAGGCGG	-0.22
ATGACCGA	-0.047
